Experimental data as given in publication PMC4336329 (PLoS ONE, 2015).
About 2,200 (0.71%) of roughly 310,000 compounds showed an effect of 50% or more. Effects have a minus sign here. Some of the results follow.

Molecular target: human ether-à-go-go-related gene (hERG) potassium channel (human, UniProt Q12809)
Test: primary screen, population patch clamp on CHO cells stably expressing hERG

human ether-à-go-go-related gene (hERG) potassium channel, sequence (Q12809 whole entry, looked up): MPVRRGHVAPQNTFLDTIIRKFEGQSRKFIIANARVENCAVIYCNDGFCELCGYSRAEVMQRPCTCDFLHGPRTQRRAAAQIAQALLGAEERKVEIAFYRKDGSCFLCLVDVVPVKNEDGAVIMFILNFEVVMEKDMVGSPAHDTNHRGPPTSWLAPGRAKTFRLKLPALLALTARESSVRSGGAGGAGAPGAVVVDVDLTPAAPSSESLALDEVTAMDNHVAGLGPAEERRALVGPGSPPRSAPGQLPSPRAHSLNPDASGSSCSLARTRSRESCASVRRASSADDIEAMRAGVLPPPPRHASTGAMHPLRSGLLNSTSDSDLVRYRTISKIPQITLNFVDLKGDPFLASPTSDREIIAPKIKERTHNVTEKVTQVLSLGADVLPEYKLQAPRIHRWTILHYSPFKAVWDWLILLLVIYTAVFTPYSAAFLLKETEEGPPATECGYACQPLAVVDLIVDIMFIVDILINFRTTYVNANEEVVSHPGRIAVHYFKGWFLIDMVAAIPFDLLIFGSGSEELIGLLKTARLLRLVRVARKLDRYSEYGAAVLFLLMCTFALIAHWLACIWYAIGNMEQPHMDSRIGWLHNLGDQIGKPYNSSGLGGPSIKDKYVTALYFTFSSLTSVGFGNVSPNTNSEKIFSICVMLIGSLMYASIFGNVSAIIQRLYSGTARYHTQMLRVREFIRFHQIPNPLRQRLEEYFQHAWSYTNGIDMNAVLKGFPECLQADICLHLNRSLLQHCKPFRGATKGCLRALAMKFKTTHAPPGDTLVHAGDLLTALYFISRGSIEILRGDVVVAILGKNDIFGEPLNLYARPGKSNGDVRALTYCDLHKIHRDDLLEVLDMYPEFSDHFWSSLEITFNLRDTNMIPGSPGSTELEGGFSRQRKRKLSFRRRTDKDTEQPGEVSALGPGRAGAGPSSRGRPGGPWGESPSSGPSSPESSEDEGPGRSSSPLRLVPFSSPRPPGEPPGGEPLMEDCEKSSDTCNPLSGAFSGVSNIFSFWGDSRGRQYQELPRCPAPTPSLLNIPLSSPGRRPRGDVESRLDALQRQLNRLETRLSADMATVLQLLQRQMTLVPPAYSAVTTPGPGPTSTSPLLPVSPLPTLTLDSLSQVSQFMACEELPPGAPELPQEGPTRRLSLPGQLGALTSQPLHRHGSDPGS

SMILES	hERG current change (%, negative = inhibition) at 1uM
O=C(O)c1ccc2c(c1)C(=O)N(c1ccc([N+](=O)[O-])cn1)C2=O	13.5%
COc1ccccc1CNC(=O)C(NC(=O)c1ccccc1C)C(C)C (stereo not drawn)	11.6%
O=C(Cn1c(=O)oc2cc(S(=O)(=O)N3CCOCC3)ccc21)N1CCc2ccccc2C1	4.41%
COc1cc(C(=O)OC(C)C(=O)NC(=O)NC2CCCCC2)ccc1OC(F)F (stereo not drawn)	-1.31%
COc1ccc2nc3oc(C(=O)N4CCN(c5cccc(Cl)c5)CC4)cc3cc2c1	0.552%
CC(=O)NCC(=O)NC(C(=O)Nc1ccc2c(c1)OCCO2)c1ccc(C)cc1 (stereo not drawn)	11.7%
COc1ccc(N2C(=O)CC(c3ccc([N+](=O)[O-])cc3)C2=O)cc1 (stereo not drawn)	12.2%
Cc1nc(-c2ccc(C(=O)N3CCCC3)cc2)cs1	9.11%
COc1ccc(NC(=O)CN(Cc2ccccc2)Cc2ccccc2)cc1S(N)(=O)=O	8.16%
Cc1cc(=O)oc2cc(OCC(=O)NCCCN3CCCC3=O)ccc12	45.4%
COCCC(=O)N1CCC(Oc2ccc(C(=O)NCc3cc(C)n(C)n3)cc2)CC1	15.7%
COc1ccc(CCN2CC(C(=O)OCC(=O)N(C)Cc3ccccc3)CC2=O)cc1OC (stereo not drawn)	3.84%
Nc1nnc(SCC(=O)Nc2cccc(S(=O)(=O)N3CCOCC3)c2)s1	21%
O=S(=O)(c1ccccc1)N1CCCC1c1cccs1 (stereo not drawn)	6.65%
CCn1nc(NC(=O)Cc2ccc(OC)cc2)c2cc3cc(C)ccc3nc21	6.43%
COCCn1c(CN(C)Cc2ccccc2)nc2c1c(=O)n(C)c(=O)n2C	6.45%
O=C(Nc1ccc(F)cc1)c1ccc(CN2CCc3ccccc3C2)cc1	13%
COc1cc(OC)c(OC)cc1CN1CCN(c2ccccc2OC)CC1	-0.441%
O=C(C(=O)N1CCOCC1)c1cn(CC(=O)N2CCCCC2)c2ccccc12	6.84%
CC(C)(C)OC(=O)N[C@H](C(=O)OC(C)(C)C)c1ccccc1	20.1%
O=C(NCc1cccnc1)c1cccc(NS(=O)(=O)c2ccc(Br)cc2)c1	-1.43%
CC(=O)c1ccc(N(CC(=O)NCCc2ccccc2)C(=O)c2csnn2)cc1	-14.6%

SMILES	hERG current change (%, negative = inhibition) at 1uM
O=C(CSc1nc2ccccc2s1)CSc1nc2ccccc2s1	9.56%
O=C(CN1C(=O)S/C(=C\c2ccccc2F)C1=O)NC1C=CS(=O)(=O)C1 (stereo not drawn)	5.43%
CSCC[C@H](NC(=O)CCn1nnc2ccccc2c1=O)C(=O)O	8.48%
CCOC(=O)C1CCC(CN(Cc2ccccc2)S(=O)(=O)c2ccc([N+](=O)[O-])cc2)CC1 (stereo not drawn)	11.2%
CC(C)OCCCNC(=O)c1ccccc1NC(=O)C1=CSCCO1	20.5%
Cc1c(-c2ccccc2)nc2ccccc2c1C(=O)NCc1cccs1	2.01%
COCCNC(=O)COc1ccc(Br)cc1Cl	12.9%
CC(=O)Nc1ccc(S(=O)(=O)N2CCN(C(=O)N3CCCC3)CC2)cc1	19.1%
COC(=O)C1=CN(C)C=C(C(=O)OC)C1c1ccc(O)c(OC)c1	1.97%
O=C(CN1CCN(Cc2ccccc2Cl)CC1)N/N=C/C=C/c1ccco1	-23%
O=C(c1cc(C(=O)N2CCOCC2)c2nc3ccccc3n2c1)c1cc(Cl)cc(Cl)c1O	4.86%
O=C(O)C(=O)O.O=[N+]([O-])c1ccccc1S(=O)(=O)N1CCN(CC2CC=CCC2)CC1 (stereo not drawn)	-6.7%
CN(CCc1ccccc1)C1CCCN(S(=O)(=O)c2cccc(F)c2)C1 (stereo not drawn)	-2.76%
CC(=O)c1ccc(NC(=O)Cc2cccs2)cc1	12.8%
CC(C)C(=O)Nc1csc(C(F)(F)F)c1-c1ccccc1	1.6%
COc1ccc(NC(=O)Cc2nnc(SCC(=O)c3ccccc3)n2C)cc1	8.78%
COc1ccccc1CNc1ncnc2c1nnn2Cc1ccccc1	5.89%
COc1ccc(OCC(=O)N2c3ccc(C)cc3C3CN(C)CCC32)cc1 (stereo not drawn)	10.9%
O=C(O)C1CC=CCC1C(=O)NC1CCCCC1 (stereo not drawn)	13%
CCS(=O)(=O)NCCc1csc(-c2ccc(OC)c(OC)c2)n1	11.2%
Cc1onc(-c2ccccc2Cl)c1C(=O)NCCN1Cc2ccccc2C1=O	6.68%
CCC1(c2ccc(F)cc2)NC(=O)N(CC(=O)Nc2cc(C)on2)C1=O (stereo not drawn)	11.5%

SMILES	hERG current change (%, negative = inhibition) at 1uM
Cc1cc(C)c2c(=O)n(CC(=O)NCCCN3CCOCC3)sc2n1	17.3%
CCOC1OC2C(CO)OC(n3cnc4c(N)ncnc43)C2O1 (stereo not drawn)	13.1%
COc1ccc(C(=O)Cn2nnc(-c3ccccc3-n3cnnn3)n2)cc1	8.34%
CCCOc1ccc(C(=O)C(CN2CCCC2)c2ccccc2)cc1.Cl (stereo not drawn)	-13.8%
COc1ccc(Br)cc1CNC(=O)C1CCN(C(=O)N(C)C)CC1	6.84%
CC(C)(C)c1ccc(C(=O)NCC(=O)OCC(=O)N2CCCC2)cc1	8.66%
NC(=O)c1ncc(C(F)(F)F)cc1Oc1cccnc1	18.6%
O=C(N/N=C/c1ccoc1)c1ccc(Br)cc1	9.96%
CCCCc1c(O)c2ccccc2n(CCCC)c1=O	8.13%
COc1ccc(C2CCCN2C(=S)Nc2ccc(C)c(C)c2)cc1OC (stereo not drawn)	4.73%
CCC(=O)c1cn(CC(=O)Nc2ccccc2)c2ccccc12	16.3%
Cc1cccc(-c2noc(CCCC(=O)NC3CCCC3)n2)c1	13%
CCOC(=O)CNc1c(-c2ccc(F)cc2)nc2cnccn12	-2.85%
CCOC(=O)c1ccc(-n2c(N)c(C(=O)NCC3CCCO3)sc2=S)cc1 (stereo not drawn)	2.25%
C=CCN1C(=O)C(Cc2cccc(Cl)c2)S/C1=N/N=C/c1ccco1 (stereo not drawn)	1.59%
COc1ccccc1NC(=O)c1cc(N2C(=O)C3C4CCC(C4)C3C2=O)ccc1Cl (stereo not drawn)	-6.06%
COc1ccc(NC(=O)C(c2ccc(C)cc2)N(C)C(=O)CC2NC(=O)NC2=O)cc1 (stereo not drawn)	-3.76%
O=C(NCc1ccc(F)cc1)C1CCCN1C(=O)NCc1ccccc1 (stereo not drawn)	-5.07%
O=C(CN1CCOCC1)N/N=C/c1ccc(-c2ccc(C(=O)O)cc2)o1	2.25%
O=C(NCc1cccnc1)c1cccc(OC2CCN(Cc3ccc(CO)o3)CC2)c1	12.9%
Cc1ccc(S(=O)(=O)N2CCN(C(=O)C3CCN(C(=O)c4ccccc4C)CC3)CC2)cc1C	-0.544%
O=C(c1cccc(S(=O)(=O)N2CCOCC2)c1)N(Cc1ccco1)Cc1cccs1	-6.4%

SMILES	hERG current change (%, negative = inhibition) at 1uM
C=C(C(=O)Oc1c(C(C)(C)C)cccc1C(C)(C)C)c1ccccc1	9.92%
CCN(CC)c1ccc(N=Cc2c(O)n(CCC3=CCCCC3)c(=O)[nH]c2=O)cc1	20.8%
Cc1ccc(S(=O)(=O)NC(=O)Nc2cccc([N+](=O)[O-])c2)cc1	7.82%
O=C(NCc1ccccn1)c1cc(-c2ccc(-c3ccccc3)cc2)nc2ccccc12	4.58%
Cc1cccc(N(Cc2cc3ccccc3[nH]c2=O)S(=O)(=O)c2ccccc2)c1	5.15%
O=C(Cn1cnc(S(=O)(=O)N2CCCCC2)c1)N1CCN(c2ccc([N+](=O)[O-])cc2)CC1	-5.79%
CN(C)C(C)(C)/C=C/C(O)(c1ccccc1)c1ccccc1	4.79%
Cc1ccc(C)c(OC(=O)c2ccncc2)c1	7.64%
CCCn1c(SCC(=O)N2c3ccccc3Sc3ccccc32)nc2c1c(=O)n(C)c(=O)n2C	-1.96%
O=C(C1CCCN(S(=O)(=O)c2ccccc2)C1)N1CCCCC1 (stereo not drawn)	9.2%
CCCN1CCC(NC(=O)Nc2ccc([N+](=O)[O-])cc2)CC1	-10.2%
Clc1ccc(-c2cc(CSc3cccc(Cl)c3)on2)cc1	1.62%
C[C@H](NC(=O)OC(C)(C)C)c1nnc(SCC(=O)c2ccc(Cl)cc2)o1	-16.2%
Cc1nc(N2CCCC2)c2nnn(Cc3ccccc3Cl)c2n1	7.5%
Cc1cc(=O)[nH]c(SCc2nc3ncccn3c2Br)n1	13.5%
CC(C)Cc1nc(SCC(=O)NCC2CCCO2)c2c(=O)n(C)c(=O)n(C)c2n1 (stereo not drawn)	6.6%
O=C(NCC1COc2ccccc2O1)C1CCC(CNc2c(N3CCCCC3)c(=O)c2=O)CC1 (stereo not drawn)	0.783%
c1ccc(C2(CNc3ccccn3)CCCC2)cc1	-11%
Cc1ccc(SC[C@H](Cc2ccccc2)N2CCN(CCc3ccccc3)CCC2=O)cc1	8.27%
Cc1ccc(N2C(=O)NC(NC(=O)C(C)(C)C)(C(F)(F)F)C2=O)cc1 (stereo not drawn)	6.67%
CCC(=O)Nc1cc2c(cc1C(C)=O)OCCO2	15.3%
